PubChem BioAssay (NCI)
Several values for one entry are separate records, joined by “and”; a condition that tells them apart may be missing. Equal values may be shown once.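 Method: 48-hour compound exposure of cells in 96-well plates, five concentrations, linear interpolation of endpoints. GI50 marks 50% less growth. The concentration for full growth arrest is given as TGI.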

Tested on: NCI-H322M lung
Assay: DTP human tumour cell line panel, 48 h

Q: Which TGI does the source give for Clc1cccc(-c2sc(-c3cccs3)cc2Cc2cccs2)c1 here?
A: > 10 µM

Q: How did the TGI turn out when Cc1nc2ccccc2nc1CC(=O)C(=O)Nc1ccc(Cl)cc1Cl was run?
A: > 100 µM

Q: For CSC1=Nc2c(c(C)c(C)n2COC(CO)CO)C2=NC(=O)CN12, which GI50 is on record?
A: > 100 µM

Q: And the TGI?
A: > 100 µM

Q: CCN(CC)Cc1cc(Nc2nc(NC3CCC(N(C)C)CC3)c3ccccc3n2)ccc1OC (stereo not given) was tested. Which GI50 did it give?
A: 12.7 µM

Q: And the TGI?
A: 34.3 µM

Q: With CN1CSC(=S)N(c2cccc(C(F)(F)F)c2)C1 as the compound, how does the TGI read?
A: 96.6 µM

Q: COc1cc(Nc2cnc3ccc(C(F)(F)F)cc3n2)cc(OC)c1OC was tested. Which TGI did it give?
A: > 100 µM

Q: With CCOC(=O)C1C(c2ccc(Cl)cc2Cl)NC(c2ccc(C)cc2)C(C(=O)OC)S1(=O)=O (stereo not given) as the compound, how does the TGI read?
A: > 100 µM

Q: Nc1ncc(Cc2ccc3c(c2)OCO3)c(N)n1 was tested. Which TGI did it give?
A: > 100 µM

Q: Which TGI does the source give for CN(C)CCN(c1ccccn1)c1ccccn1 here?
A: > 100 µM

Q: O=C(OCc1ccc2c(Br)cc(Br)c(O)c2n1)c1cc2ccccc2[nH]1 was tested. Which GI50 did it give?
A: 1.61 µM

Q: What about the TGI of the same compound?
A: 3.24 µM

Q: Which GI50 does the source give for Cc1nn(-c2ccc(Cl)cc2)c2ncnc(N/N=C/c3ccccc3O)c12 here?
A: 0.322 µM and 0.294 µM

Q: And the TGI?
A: 24.5 µM and > 55.1 µM

Q: With c1ccc2c(c1)SCCCS2 as the compound, how does the TGI read?
A: > 100 µM

Q: How did the TGI turn out when NNC(=O)C(=O)N/N=C1/CCCC1C(=O)CCC(=O)Nc1ccc(Cl)cc1 (stereo not given) was run?
A: > 100 µM

Q: How did the TGI turn out when O=c1[nH]c(NCc2ccncc2)nc2nc[nH]c12 was run?
A: > 100 µM

Q: With CCOC(=O)CSc1nc(N)c2c(-c3ccccc3)c3c(nc2n1)CCCC3 as the compound, how does the TGI read?
A: > 100 µM

Q: With CN(CCN1CCCC1)C1CCc2cc(Cl)c(Cl)cc2C1 (stereo not given) as the compound, how does the TGI read?
A: 29.7 µM

Q: Which GI50 does the source give for N#CC1c2ccccc2C=CN1C(=O)CCCl (stereo not given) here?
A: 18.3 µM

Q: And the TGI?
A: 35.5 µM

Q: With CC1CC(N2CCOCC2)=Nc2ccccc2N1C (stereo not given) as the compound, how does the TGI read?
A: > 100 µM

Q: O=C1Oc2ccccc2C(=O)/C1=C1/C=C(c2ccccc2)SS1 was tested. Which TGI did it give?
A: > 100 µM

Q: With O=C(CC(NC(=O)C(F)(F)F)C(=O)O)OCc1ccccc1 (stereo not given) as the compound, how does the TGI read?
A: > 100 µM

Q: COc1ccc2c(c1)C(=O)c1c-2c(Nc2ccccc2OC)nc2ccccc12 was tested. Which GI50 did it give?
A: > 100 µM

Q: And the TGI?
A: > 100 µM

Q: Which GI50 does the source give for CC(=O)ON1CCCC(P(=O)(OCOC(=O)C(C)(C)C)OCOC(=O)C(C)(C)C)C1=O (stereo not given) here?
A: 0.901 µM

Q: And the TGI?
A: 11.3 µM

Q: What does the source list for O=C1/C(=C/c2ccc(Cl)c(Cl)c2)CN(C(=O)CCN2CCC(=NO)CC2)C/C1=C\c1ccc(Cl)c(Cl)c1?
A: GI50: 1.66 µM; TGI: 3.77 µM

Q: Which TGI does the source give for O=c1/c(=C/c2ccccc2[N+](=O)[O-])sc2nnc(-c3cccnc3)n12 here?
A: > 100 µM

Q: With COc1ccc2c(c1)c1c(n2CCN2CCCCC2)-c2cccc(OC)c2CC1 as the compound, how does the TGI read?
A: 55 µM

Q: For O=C(O)c1nc2ccc(C(F)(F)F)cc2[nH]c1=O, which TGI is on record?
A: > 100 µM

Q: With CC(=O)O[C@H]1C(=O)[C@@]2(C)C([C@H](OC(=O)c3ccccc3)[C@]3(O)C[C@H](OC(=O)[C@H](O)[C@@H](NC(=O)c4ccccc4)c4ccccc4)C(C)=C1C3(C)C)[C@]1(OC(C)=O)CO[C@@H]1C[C@@H]2O (stereo not given in full) as the compound, how does the GI50 read?
A: 0.0218 µM

Q: What about the TGI of the same compound?
A: > 50 µM

Q: Which results are given for Cc1c2ccnc(C(N)=O)c2c(C)c2c1[nH]c1ccccc12?
A: GI50: 4.9 µM; TGI: 35.8 µM and 27.1 µM

Q: O=C1C=C[C@H](O)[C@@]2(CO)O[C@@H]12 was tested. Which GI50 did it give?
A: 24.1 µM

Q: What about the TGI of the same compound?
A: 69 µM

Q: Which TGI does the source give for N#C/C(=C\c1cc(OCc2ccccc2)c(OCc2ccccc2)cn1)C(N)=O here?
A: > 100 µM

Q: For c1ccc(-c2[nH]ncc2-c2ccnc(-c3ccc(OCCn4ccnc4)cc3)c2)nc1, which GI50 is on record?
A: > 25 µM

Q: What about the TGI of the same compound?
A: > 25 µM

Q: For Cc1c2cccc-2c2cc(O)c3ccccc3c2n1-c1ccc(N(C)C)cc1, which TGI is on record?
A: 22.9 µM

Q: For COC(=O)CCC(NC(=S)N/N=C/c1cccs1)C(=O)OC (stereo not given), which TGI is on record?
A: > 100 µM

Q: For O=CC(I)=C(c1ccccc1)c1ccccc1, which TGI is on record?
A: 17.6 µM

Q: Which TGI does the source give for CCc1cccc(C)c1NC(=O)CCc1nc(=S)[nH][nH]1 here?
A: > 100 µM

Q: For Cc1nc(N)nc(CCC(=O)Nc2cccc(C(F)(F)F)c2)c1-c1ccc(Cl)cc1, which TGI is on record?
A: > 100 µM

Q: With COc1cc(C)c(CC/C(C)=C/Cc2cc(O)ccc2O)c(C)c1C as the compound, how does the TGI read?
A: > 25 µM

Q: O=C(/C=C/c1ccc(Cl)cc1)Oc1ccc(C=C2CCC/C(=C\c3ccc(OC(=O)/C=C/c4ccc(Cl)cc4)cc3)C2=O)cc1 was tested. Which TGI did it give?
A: > 100 µM

Q: What does the source list for Nc1nc2c(c3cnccc13)C(c1ccc(Cl)c(Cl)c1)Cc1cnccc1-2 (stereo not given)?
A: GI50: 1.31 µM; TGI: 18 µM

Q: How did the TGI turn out when CC1(C)CC(=O)C2=C(C1)C(c1ccccc1Cl)C1C(=O)CC(C)(C)CC1(O)O2 (stereo not given) was run?
A: > 100 µM

Q: For CCCCI(O)OS(=O)(=O)c1ccc(C)cc1, which TGI is on record?
A: > 100 µM

Q: Which TGI does the source give for CN(C)c1nc(Oc2nc(N(C)C)nc(N(C)C)n2)nc(N(C)C)n1 here?
A: > 100 µM

Q: With O=C1NN(C2=NNC3(C(=O)N2)c2ccccc2-c2ccccc23)C(c2ccccc2)=N/C1=C/c1ccc(Cl)cc1 as the compound, how does the GI50 read?
A: 81 µg/mL

Q: What about the TGI of the same compound?
A: > 150 µg/mL

Q: For CCn1c2c(c3ccccc3c1=O)C(=O)c1ccccc1-2, which TGI is on record?
A: > 100 µM

Q: COc1ccc(OC)c(/C=C/c2nc(=S)n(-c3ccc(Cl)cc3)[nH]2)c1 was tested. Which GI50 did it give?
A: 26.9 µM

Q: What about the TGI of the same compound?
A: > 100 µM

Q: Which TGI does the source give for COC(=O)/C=C(/C(=O)OC)C1(C)c2cc(C(=O)OC)c(C(=O)OC)c(N)c2C(=N)N1c1ccccc1 (stereo not given) here?
A: > 100 µM

Q: Which results are given for COc1ccc(C(=O)c2cc(OC)c(OC)c(OC)c2OC)cc1O?
A: GI50: 5.13 µM; TGI: > 100 µM

Q: Which GI50 does the source give for CCN(CC)CCCNc1ccc(C)c2sc3ccccc3c(=O)c12 here?
A: 1.56 µM

Q: What about the TGI of the same compound?
A: 3.47 µM
